# Measurements taken from PubChem BioAssay AID995 (National Center for Advancing Translational Sciences (NCATS), 2007).
# Out of some 72,000 compounds screened, about 710 (0.99%) were called active. The shares of active, inactive and inconclusive entries below differ from those in the screen. Calls come from the whole dose curve; as a rule, active = well fitted inhibition curve with a large enough effect; inconclusive = small, poorly fitted or top-dose-only effect; inactive = no such curve, though single readings can be large or run the other way. No potency is given beside an inconclusive call; the fits are too rough.
# Assay: qHTS Assay for Inhibitors of the ERK Signaling Pathway using a Homogeneous Screening Assay; note: nearly all actives have a fitted effect of over 55% in size
# Conditions: HEK293-V1b, vasopressin-stimulated pERK AlphaScreen; activity, negative = inhibition: at 57.5 µM (top of the series) unless noted
# In short: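 HEK293 cells stably expressing V1b receptor, seeded overnight in 1% FBS, were treated with compounds for 30 min at 37C, then stimulated 5 min with 25 nM vasopressin; phospho-ERK read by AlphaScreen SureFire after lysis.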
# % is set by controls: 0 for no effect and ±100 for the full control effect; potency is the fitted concentration of half-maximal effect; tags give direction and shape of the fitted curve.
Structure (SMILES),Potency,"activity, negative = inhibition"
O=C(O)CCc1nc(-c2ccccc2)c(-c2ccccc2)o1,"inconclusive [inhibitor, full curve, poor fit]",–
COc1ccccc1-c1nc(C(N)=O)c2[nH]c(=O)n(-c3cccc(C)c3)c2n1,"inconclusive [inhibitor, partial curve]",–
NC(=O)c1cccc2c3c([nH]c12)CCCC3,"inconclusive [inhibitor, single point]",–
COC(=O)[C@@H]1C[C@H]1[C@@H](NC(=O)c1cc(C)nn1C)c1ccccc1,inactive,–
CC(=O)N1CCCc2cc(S(=O)(=O)N(C)CCC#N)ccc21,inactive,–
c1csc(Cc2nn3c(-c4n[nH]c5c4CCC5)nnc3s2)c1,"inconclusive [inhibitor, partial curve]",–
O=C(OCCCCN1C(=O)c2ccccc2C1=O)c1n[nH]c2ccccc12,"inconclusive [inhibitor, partial curve]",–
COc1cc2c(cc1OC)-c1cc(OCCN3CCOCC3)nc(=O)n1CC2,"inconclusive [inhibitor, single point]",–
CC(=O)Nc1ccccc1C=C1c2ccccc2-c2ccccc21,–,inactive: -12% [at 11.5 µM]
COCCNc1ncnc2ccc(-c3ccc(N(C)C)cc3)cc12,"inconclusive [inhibitor, partial curve]",–
Cc1cnc(CNc2ccnc(-c3cccnc3)n2)cn1,"inconclusive [inhibitor, full curve, poor fit]",–
Cc1cc(Nc2ccccc2)nc(-c2ccccc2O)n1,active: 31.6 µM,–
O=C(c1ccc(Br)o1)N1CCN(c2ccc3nnc(-c4ccccc4)n3n2)CC1,inactive,–
Nc1ccc2c(c1)C(=O)c1ccccc1C2=O,"inconclusive [inhibitor, full curve]",–
CCCc1cc(C(=O)Nc2cccc(C(C)=O)c2)no1,"inconclusive [inhibitor, partial curve, poor fit]",–
CCc1c(C)sc(NC(=O)c2cc(C)on2)c1C#N,inactive,–
CCOC(=O)[C@]1(C(NC(=O)OC)c2cccc(C)c2)CCCC1=O (stereo not given in full),–,inactive: 5.6% [at 11.5 µM]
O=C(NC1CCCCC1)N1CCc2[nH]c3ccccc3c2C1,"inconclusive [inhibitor, partial curve]",–
CCn1cc(C(=O)OCC(=O)OC2CC(C)CCC2C(C)C)c(=O)c2ccc(C)nc21 (stereo not given),active: 25.1 µM,–
Cn1cccc1Cc1nnc(SCC(=O)Nc2ccc3c(c2)OCO3)n1-c1ccc(F)cc1,"inconclusive [inhibitor, partial curve]",–
